{
  "source": "ChEMBL document CHEMBL4888484",
  "about": "“Replenishing the malaria drug discovery pipeline: Screening and hit evaluation of the MMV Hit Generation Library 1 (HGL1) against asexual blood stage Plasmodium falciparum ,using a nano luciferase reporter read-out” (2022)",
  "note": "The whole screen tested about 150,000 compounds, of which about 540 (0.36%) showed an effect of 50% or more. Some of the results follow.",
  "data": [
    {"tested_on": "Plasmodium falciparum", "assay": "Primary screen in NF54 nanoGlo assay, in single point, at 2uM, 72h; a lower Z score goes with more inhibition", "format": "functional, Erythrocyte", "settings": "timepoint 72 hour", "units": {"% Inhibition": "%"}, "values": [
      {"smiles": "CC(=O)OCC1OC2OC(C)(C#N)OC2C(OC(C)=O)C1OC(C)=O", "note": "(stereo not drawn)", "% Inhibition": 1, "Z score": -0.1},
      {"smiles": "CC[C@](C)(NC(=O)c1cnc(C2CC2)nc1N)c1nc(C)cs1", "% Inhibition": -10, "Z score": 1},
      {"smiles": "CC(C)N(CC(=O)Nc1nc(-c2ccccc2)cn1-c1ccccc1)S(=O)(=O)c1ccc(Cl)cc1", "% Inhibition": -2, "Z score": 0.29},
      {"smiles": "Cc1ccccc1Cc1c(C)nc2c(C(=O)N3CCC(Cc4nncn4Cc4ccccc4)CC3)cnn2c1C", "% Inhibition": 3, "Z score": -0.29},
      {"smiles": "CC(C)N1C(=O)CC[C@H]1C(=O)NC1(c2c(F)cccc2F)COC1", "% Inhibition": 4, "Z score": -0.55},
      {"smiles": "CCCn1nnnc1CNc1ccc(C(C)C)cc1", "% Inhibition": 31, "Z score": -3.48},
      {"smiles": "O=S(=O)(NC[C@@](O)(c1ccccc1)C1CC1)c1cccs1", "% Inhibition": 1, "Z score": -0.18},
      {"smiles": "Cc1nnc2n1C[C@@H](NCc1cnc(C(C)(C)C)s1)CC2", "% Inhibition": -10, "Z score": 2.06},
      {"smiles": "CC(C)c1csc(CCNC(=O)[C@@H](C)Cn2cncn2)n1", "% Inhibition": -4, "Z score": 0.58},
      {"smiles": "O=C(Nc1ccc2c(c1)OCO2)C1CCN(c2ccc3nncn3n2)CC1", "% Inhibition": 7, "Z score": -0.84},
      {"smiles": "CCn1nc(CO)c2c1CCN(C1CCN(c3ccc(C)c(Cl)c3)CC1)C2", "% Inhibition": -1, "Z score": 0.12},
      {"smiles": "Oc1ccc(-n2c(-c3ccccc3)ccc2-c2ccccc2)cc1", "% Inhibition": 36, "Z score": -4.61},
      {"smiles": "c1ccn2c(OCCc3ccc4c(c3)CCO4)nnc2c1", "% Inhibition": -4, "Z score": 0.66},
      {"smiles": "Cc1occc1C(=O)N(C)Cc1nc2ccccc2c(=O)[nH]1", "% Inhibition": -14, "Z score": 2.05},
      {"smiles": "COc1ccccc1CN(Cc1c(C)noc1C)C1CC1", "% Inhibition": -6, "Z score": 0.48},
      {"smiles": "CNC(=O)c1cnc(-c2ccc(F)cc2)n(CC(=O)Nc2cc(F)ccc2F)c1=O", "% Inhibition": -23, "Z score": 3.5},
      {"smiles": "C[C@](O)(CN1CCC(CC(N)=O)CC1)C(F)(F)F", "% Inhibition": -2, "Z score": 0.44},
      {"smiles": "Cc1noc(C)c1C[C@H](C)NC(=O)Nc1ccc2c(c1)C(=O)NCC2", "% Inhibition": 3, "Z score": -0.32},
      {"smiles": "CC1(C)CC(NC(=O)C2CCCN(c3ccc4nnnn4n3)C2)CCO1", "note": "(stereo not drawn)", "% Inhibition": 4, "Z score": -0.44},
      {"smiles": "CCOC(=O)[C@H]1CCCN(C(=O)CCn2ccnc2)C1", "% Inhibition": -7, "Z score": 0.9},
      {"smiles": "O=C(c1ccc(F)c(F)c1F)N1CCn2nccc2C1", "% Inhibition": -13, "Z score": 2.02},
      {"smiles": "COc1cc(-c2cnc(OC)nc2OC)c(Cl)cn1", "% Inhibition": -8, "Z score": 0.8},
      {"smiles": "CCOC(=O)CCn1cc(F)c(=O)[nH]c1=O", "% Inhibition": 74, "Z score": -6.55},
      {"smiles": "Cc1cccc(Cn2nc([C@H](O)c3ccccc3)nc2CN2CCOC2=O)c1", "% Inhibition": 1, "Z score": -0.12}
    ]}
  ]
}
